In the supplement of paper PMC12217912:
Some of the results follow. Sequences were assembled here from the parent chain. Inactive controls read about 0.05.

B1: TEV protease; numbered along this chain (parent)
chain: MGESLFKGPRDYNPISSSICHLTNESDGHTTSLYGIGFGPFIITNKHLFRRNNGTLVVQSLHGVFKVKDTTTLQQHLVDGRDMIIIRMPKDFPPFPQKLKFREPQREERICLVTTNFQTKSMSSMVSDTSCTFPSGDGIFWKHWIQTKDGQCGSPLVSTRDGFIVGIHSASNFTNTNNYFTSVPKNFMELLTNQEAQQWVSGWRLNADSVLWGGHKVFMVKPEEPFQPVKEATQL

Variants of: B1
Assay: raw area under fraction-flipped curve 0-4 h after induction (AUC4h, not background-subtracted), DNA-recorder readout of cleavage of the substrate (dimensionless); higher = more cleavage of the substrate by the protease variant
Conditions: temperature: 34 °C; time window: 0-4 h after rhamnose induction
Protocol: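 In vivo DNA recorder in E. coli TOP10(DE3) ΔrhaA at 34 °C. Each TEVp single-site mutant (parent TEVp 0) is paired with a single-site variant of the 7-mer TEVs (canonical ENLYFQ|S). The substrate sits between flexible linkers in a Bxb1-sfGFP-TEVs-SsrA fusion, so cleavage stabilises Bxb1 and speeds flipping of a recombination array, read by NGS. The value is the raw area under the fraction-flipped curve over 0-4 h after rhamnose induction (AUC4h), with ≥20 reads per time point. It is not background-subtracted; inactive controls average about 0.047.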
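Note: Bxb1 expression induced with 0.2% (w/v) L-rhamnose at OD600 near 0.5, cultures sampled hourly, flipped fraction per protease–substrate barcode pair counted by paired-end Illumina sequencing.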

Variant	area with substrate ENLAFQS	area with substrate ENLDFQS	area with substrate ENLEFQS	area with substrate ENLFFQS	area with substrate ENLGFQS	area with substrate ENLHFQS	area with substrate ENLIFQS	area with substrate ENLKFQS	area with substrate ENLLFQS	area with substrate ENLMFQS	area with substrate ENLNFQS	area with substrate ENLPFQS	area with substrate ENLRFQS	area with substrate ENLSFQS	area with substrate ENLVFQS	area with substrate ENLWFQS	area with substrate ENLQFQS	area with substrate ENLTFQS	area with substrate ENLCFQS
E25V	0.0701	0.0681	0.0633	0.103	0.0661	0.0684	0.0807	0.0863	0.0704	0.0813	0.0615	0.0518	0.0802	0.0645	0.0738	0.056			
E25D	0.067	0.0727	0.0581	0.0898		0.0494	0.0823	0.0749			0.0608	0.0775		0.0617		0.05	0.0804	0.0805	
G28K	0.067	0.0552	0.0628	0.0733		0.0774		0.0763				0.0622	0.0644			0.0679	0.0675	0.0651	
H62S	0.0642	0.0621	0.0587	0.0839		0.0752	0.0596	0.0712	0.0752	0.0696	0.0599	0.0559	0.0634		0.1		0.0499	0.0676	
H62R	0.0649	0.058	0.0551			0.0841	0.0757	0.0616		0.0652	0.0531			0.0656	0.0846		0.0768		0.0671
R51K	0.06		0.0955	0.0527	0.0752	0.0684				0.0667	0.0528			0.0675			0.056		
T44E	0.0387		0.0404				0.056	0.0393			0.0449		0.0472			0.0403			
Q59M	0.0761	0.0645	0.0048	0.0847		0.0677	0.0697	0.0684	0.0697		0.0544	0.0641		0.063	0.113		0.078		0.0646
S26D	0.0731	0.0659	0.0658	0.0668			0.0748	0.0786		0.0695	0.0659	0.0694	0.0397	0.0623	0.0787	0.073	0.0613		0.0723
L22N	0.0334	0.0469		0.0603	0.063	0.0508	0.0348	0.0516			0.0481	0.0478	0.0453		0.0473	0.0708	0.0509		0.0448
G37M	0.0589	0.0563	0.0433	0.0571		0.0491	0.0265	0.0653		0.0593	0.0778	0.0551		0.0538	0.0723		0.0668		
F65M	0.0569	0.0664	0.0603	0.0782			0.0777	0.0717	0.0735		0.0608		0.0811	0.068		0.0587	0.069		0.0531
R50E	0.0605	0.0636	0.0755	0.076	0.0639	0.0612	0.0747	0.0717	0.0675	0.071	0.0648	0.068	0.0554	0.0695		0.056			0.0582
D27L	0.0623	0.06	0.0542	0.0746		0.0639	0.0758	0.0758	0.0639		0.0627	0.0623	0.0477	0.0668	0.0961	0.0628	0.0486		0.067
P40Y	0.0611	0.0526	0.0598	0.118		0.0394	0.0682	0.0713	0.0729		0.0696	0.0549	0.0753	0.0562	0.0847			0.0768	0.0724
T30Q	0.0629	0.0652	0.0688	0.103	0.0639		0.0843	0.072		0.0792	0.0535	0.0396	0.0739	0.0637	0.0766	0.068	0.0664	0.0702	0.0753
H21L	0.0726	0.0649	0.0688	0.079	0.0688	0.0725	0.116	0.0753	0.0656		0.0684			0.0537	0.0905				0.0734
G39H	0.0495	0.0405	0.0627	0.0477		0.046	0.0472	0.0463	0.0318	0.0423	0.0415	0.0466	0.0466	0.0403	0.0452	0.0461	0.039		0.0514
G39T	0.0387	0.0394	0.0403	0.0469		0.0395	0.0278		0.0376		0.0394	0.0616	0.0286	0.0281		0.0588			
G39C	0.0376	0.0424	0.05	0.0496		0.0555	0.0317	0.0523	0.0499		0.0527	0.0501	0.0551	0.04	0.0208	0.0406	0.0542		0.0469
N52K	0.0545			0.0628	0.0665	0.0677		0.0849				0.0791			0.0552		0.0543		
T31S	0.0616	0.0474	0.0781		0.0515	0.0564		0.0802			0.0622	0.0587	0.0768	0.0548		0.0714	0.0522		0.0824
T31N	0.0624	0.0624	0.061	0.0873		0.0536	0.0803	0.0782	0.0646		0.0642	0.0621	0.072	0.0565	0.0877	0.0681	0.0496		0.0942
T31D	0.0708	0.0704	0.0614	0.0805		0.0549	0.0901	0.0848			0.0612	0.0627	0.078	0.0622			0.0639		0.0759
C20P	0.0428	0.0498	0.0469	0.0543	0.066	0.0529	0.0585	0.0543	0.0613		0.0588	0.0505	0.0515	0.0524	0.0541	0.0587	0.0477	0.0423	0.0367
